PubChem BioAssay AID2107 (National Center for Advancing Translational Sciences (NCATS), 2009)
Among all 240,000 compounds or so, about 20 (0.008%) were called active. Inconclusive results, whose numbers are uncertain, are shown with a selection of clear calls. Calls follow the shape of the dose curve; as a rule, active = well fitted inhibition curve with a large enough effect; inconclusive = small, poorly fitted or top-dose-only effect, or effect the other way; inactive = flat fitted curve, though single readings scatter. Potencies of inconclusive entries are left out as doubtful fits.

Biological target: Alpha-galactosidase A (Homo sapiens) (UniProt P06280)
Experiment: qHTS Assay for Inhibitors and Activators of Human alpha-Galactosidase From Spleen Homogenate
Details: 4MU-alpha-Gal fluorescence, 40 min; series mostly up to 80 µM
Outline: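 Spleen homogenate 1 ug + cpd (titration) + 4-MU-alpha-D-galactopyranoside 1 mM; 37C 40 min; 50 mM citrate/phosphate pH 5.0, 0.01% Tween-20; stop pH 10; fluorescence 365/440; AC50 via Hill.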
Potency is read from the fitted curve at half-maximal effect; tags tell the direction and shape of the fitted curve.

Sequence of UniProt P06280 (P06280 whole entry, looked up): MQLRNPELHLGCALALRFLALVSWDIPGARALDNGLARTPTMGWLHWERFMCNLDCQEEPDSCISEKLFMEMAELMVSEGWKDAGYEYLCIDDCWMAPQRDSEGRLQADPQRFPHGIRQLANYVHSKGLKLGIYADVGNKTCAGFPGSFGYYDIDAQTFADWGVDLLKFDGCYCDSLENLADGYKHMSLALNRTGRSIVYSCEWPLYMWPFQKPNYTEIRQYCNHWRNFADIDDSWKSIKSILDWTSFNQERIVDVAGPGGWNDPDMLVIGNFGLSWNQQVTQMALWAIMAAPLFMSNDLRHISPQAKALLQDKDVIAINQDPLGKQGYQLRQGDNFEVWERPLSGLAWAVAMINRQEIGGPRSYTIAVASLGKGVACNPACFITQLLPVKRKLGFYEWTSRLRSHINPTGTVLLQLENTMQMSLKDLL

SMILES | Potency
Cc1cccn2c(=O)c3cc(C(=O)N4CCN(C(=O)c5ccco5)CC4)n(C)c3nc12 | inconclusive [activator, partial curve]
COc1ccc(C(C)=O)cc1CSc1nnc(C)s1 | inactive
CN(C)c1ncc2nc(-c3ccc(F)cc3)c(=O)n(C)c2n1 | inconclusive [activator, single point]
N#Cc1c(-c2ccco2)cc(-c2ccc(F)cc2)nc1N | inconclusive [activator, single point]
FC(F)(F)c1nnc2ccc(NCc3ccccc3)nn12 | inactive
CCN(CC)C(=O)CC(c1ccccc1)c1ccco1 (stereo unspecified) | inconclusive [inhibitor, full curve, poor fit]
Cc1cc(=O)oc2cc(NC(=S)NCc3cccnc3)ccc12 | inconclusive [activator, partial curve]
CCNc1ncc2nc(-c3ccccc3)c(=O)n(C3CC3)c2n1 | inactive
Cc1cc(NCCCn2ccnc2)n2c(nc3ccccc32)c1C#N | inconclusive [activator, full curve, poor fit]
CCCOC(=O)CCNc1n[nH]c(=O)[nH]c1=O | inconclusive [inhibitor, single point]
COc1ccc2cc3cc(C(=O)NCCN4CCN(Cc5ccccc5)CC4)oc3nc2c1 | inconclusive [activator, full curve, poor fit]
COC(=O)c1c(NC(=O)c2ccc(OC(C)C)cc2)sc2c1CC(C)(C)NC2(C)C | inconclusive [activator, single point]
CN(C)c1nc(N)nc(CSc2nnnn2-c2cccc3ccccc23)n1 | inconclusive [inhibitor, single point]
CCCS(=O)(=O)c1c(S(=O)(=O)CCC)c2cc(-c3ccncc3)ccn2c1C(=O)OC | inconclusive [activator, single point]
Fc1ccc(-c2cc3nc(-c4ccccc4)cc(N4CCN(CCN5CCOCC5)CC4)n3n2)cc1 | inconclusive [activator, partial curve]
CCc1nc(Cl)c(C#N)c2c1CCCC2 | inconclusive [inhibitor, full curve, poor fit]
c1ccc(-n2c(-c3cccs3)nc3nc4ccccc4nc32)cc1 | inconclusive [activator, partial curve]
CC(=O)Nc1ccc(S(=O)(=O)NCC(=O)OCc2cc(=O)oc3ccc4ccccc4c23)cc1 | inconclusive [activator, partial curve]
CN(C)c1ccc(-c2nc(N(C)Cc3ccco3)c3ccccc3n2)cc1 | inconclusive [activator, single point]
COc1ccc(C2C(C(=O)NCCN(C)C)c3ccccc3C(=O)N2C)cc1OC (stereo unspecified) | inconclusive [inhibitor, full curve, poor fit]
COc1ccc(C2CC(c3cccs3)=NN2c2ccc(F)cc2)cc1OC (stereo unspecified) | inconclusive [activator, partial curve]

SMILES | Potency
Clc1ccc(/C=C/c2nc3ccccc3[nH]2)cc1 | inconclusive [activator, partial curve]
COC(=O)c1ccc(/C=C/c2ccc3cccc(OC)c3n2)cc1 | inconclusive [activator, partial curve]
Cc1ccc2nc3c(cc(C#N)c(=O)n3CC3CCCO3)c(=O)n2c1 (stereo unspecified) | inconclusive [activator, full curve, poor fit]
CCOc1ccc(S(=O)(=O)Nc2ccc(S(=O)(=O)N3CCOCC3)cc2)cc1 | inconclusive [inhibitor, full curve, poor fit]
N#C/C(=C\c1ccco1)C(=O)Nc1cccc2ncccc12 | inconclusive [activator, single point]
CC(C)C[C@H](NC(=O)CNC(=O)[C@H](C)NC(=O)[C@H](CC(C)C)NC(=O)[C@H](CCCNC(=N)N)NC(=O)[C@H](Cc1cnc[nH]1)NC(=O)[C@@H](NC(=O)[C@@H](NC(=O)[C@@H]1CSSC[C@H](NC(=O)[C@@H](N)CO)C(=O)N[C@@H](CC(N)=O)C(=O)N[C@@H]([C@@H](C)O)C(=O)N[C@@H](C)C(=O)N[C@@H]([C@@H](C)O)C(=O)N1)C(C)C)[C@@H](C)O)C(=O)N[C@@H](CC(C)C)C(=O)N[C@@H](CO)C(=O)N[C@@H](CCCNC(=N)N)C(=O)N[C@@H](CO)C(=O)NCC(=O)NCC(=O)N[C@H](C(=O)N[C@H](C(=O)N[C@@H](CCCCN)C(=O)N[C@@H](CC(=O)O)C(=O)N[C@@H](CC(N)=O)C(=O)N[C@@H](Cc1ccccc1)C(=O)N[C@H](C(=O)N1CCC[C@H]1C(=O)N[C@H](C(=O)N[C@@H](CC(N)=O)C(=O)N[C@H](C(=O)NCC(=O)N[C@@H](CO)C(=O)N[C@@H](CCCCN)C(=O)N[C@@H](C)C(=O)N[C@@H](Cc1ccccc1)C(N)=O)C(C)C)[C@@H](C)O)C(C)C)C(C)C)C(C)C | inactive
COc1cc(NS(C)(=O)=O)ccc1Nc1c2ccccc2nc2ccccc12 | inconclusive [activator, partial curve]
CS(=O)(=O)Nc1ccc(C2=NN(C(=O)C3CCCCC3)C(c3cccs3)C2)cc1 (stereo unspecified) | inconclusive [activator, single point]
CC(C)CCNC(=O)CSc1nc2ccccc2s1 | inactive
CCN1CCN(c2cc3c(cc2F)c(=O)c(C(=O)O)cn3C2CC2)CC1 | inactive
CN(C)C(=O)COC(=O)c1cc(Cl)cc(Cl)c1N | inconclusive [activator, partial curve]
Cn1cnc2c(N3CCCCC3)nccc21 | inconclusive [inhibitor, single point]
CCOc1cc(C(=O)N2CCc3cc(OC)c(OC)cc3C2)ccc1OC(F)F | inconclusive [inhibitor, single point]
COC(=O)Cc1c(C)c2ccc(O)c(CN3CCCC(C)C3)c2oc1=O (stereo unspecified) | inconclusive [activator, partial curve]
CCc1cc(C=NC2CCCCC2)c(O)s1 | inconclusive [activator, single point]
CCOC(=O)NC1=NCC(C)S1 (stereo unspecified) | inconclusive [inhibitor, partial curve, poor fit]
C=C(Br)Cn1c(CCCC)nc2ccccc21 | inconclusive [inhibitor, partial curve]
Cc1nc(C#N)c(N/N=C/c2cccc(Cl)c2)o1 | inactive
CCNc1nc(N)c(C(=C(C#N)C#N)c2ccccc2)s1 | inconclusive [activator, partial curve]
COc1cc(NCCC(=O)c2cccs2)c(OC)cc1Cl | inactive
Cc1ccc(/C=c2\sc3nc(-c4ccco4)nn3c2=O)o1 | inconclusive [activator, full curve]

SMILES | Potency
CCOC(=O)c1[nH]c2ccc(OCC)cc2c1NC(=O)CN1CCCC(C)C1 (stereo unspecified) | inconclusive [activator, partial curve]
CC1CCc2nc(N)c(C#N)c(-c3ccncc3)c2C1 (stereo unspecified) | inconclusive [inhibitor, single point]
CCCCN(C(=O)NC(=O)C1=C(N2CCOCC2)/C(=C/c2ccccc2)CC1)S(C)(=O)=O | inconclusive [activator, single point]
O=C(O)C1OC(Oc2c(-c3ccc(O)c(O)c3)oc3cc(O)cc(O)c3c2=O)C(O)C(O)C1O (stereo unspecified) | inactive
COC(=O)/C=C/C(=O)Nc1cccnc1 | inactive
CCC(C)NC(=O)c1cc2cc3ccc(OC)cc3nc2s1 (stereo unspecified) | inconclusive [activator, partial curve]
O=C(CCSCc1ccccc1F)N1CCN(c2ccccn2)CC1 | inconclusive [inhibitor, single point]
O=C(COc1ccccc1)Nc1cccc(-c2nc3cc4ccccc4cc3[nH]2)c1 | inconclusive [activator, single point]
COC(=O)c1cc(-c2ccccc2)sc1N | inactive
Clc1ccc(N2N=C(c3cccs3)CC2c2ccco2)cc1 (stereo unspecified) | inconclusive [activator, partial curve]
CCCC(=O)N1CCN(c2nc(CC(C)C)c3c(c2C#N)CCC3)CC1 | inconclusive [activator, single point]
CCCc1cc(C(F)(F)F)c(C#N)c(=O)[nH]1 | inconclusive [activator, partial curve]
COC(=O)C1CCN(C(=O)COc2ccc(Cl)cc2)CC1 | inactive
Cc1ccc(-c2csc(Cc3nc(-c4cc5ccccc5oc4=O)cs3)n2)cc1 | inconclusive [activator, single point]
COC(=O)CSc1ccc(C#N)c(SCC(=O)OC)c1 | inconclusive [activator, partial curve]
COc1ccc(/C(N)=N/OC(=O)Cc2ccc(OC)c(OC)c2)cc1 | inconclusive [inhibitor, partial curve]
Cc1csc(NC(=O)CSc2nnc(C)s2)n1 | inconclusive [inhibitor, single point]
CC(=O)Nc1cc2c(ccc3ccccc32)oc1=O | inconclusive [activator, full curve, poor fit]
Cc1ccccc1OCCNC(=O)/C=C/c1ccc([N+](=O)[O-])cc1 | inconclusive [inhibitor, single point]
